Measured values: PubChem BioAssay AID1347165 (National Center for Advancing Translational Sciences (NCATS), 2019)
Among all 220,000 compounds or so, about 5,700 (2.6%) were called active. The inconclusive results got no clear call from the source; some entries with a clear call stand among them for comparison. Calls come from the whole dose curve; as a rule, active = well fitted inhibition curve with a large enough effect; inconclusive = small, poorly fitted or top-dose-only effect; inactive = no such curve, though single readings can be large or run the other way. Potencies of inconclusive entries are doubtful fits and often do not repeat.

Target: Lysine-specific demethylase 5B (Homo sapiens) (UniProt Q9UGL1)
Test: Primary screen for KDM5B Histone Demethylases FDH-coupled qHTS; note: nearly all actives have a fitted effect of over 70% in size; for activity change, negative = inhibition: 0% is about no effect
Settings: FDH-coupled NADH fluorescence (FDH is formaldehyde dehydrogenase); activity change, negative = inhibition: at 57.7 µM (top of the series) unless noted
Outline: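 KDM5BΔAP (200 nM final) in 50 mM HEPES pH 7.5, 0.01% Tween-20 was preincubated 10 min at RT with compound over a concentration range. Substrate mix (H3K4me3 12.5 µM, α-KG 25 µM, Fe²⁺, ascorbate, NAD⁺, FDH) was added, and NADH fluorescence change over 30 min gave dose-response curves.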
Potency is the fitted concentration of half-maximal effect; tags give direction and shape of the fitted curve.

Chain of UniProt Q9UGL1 (Q9UGL1 whole entry, looked up): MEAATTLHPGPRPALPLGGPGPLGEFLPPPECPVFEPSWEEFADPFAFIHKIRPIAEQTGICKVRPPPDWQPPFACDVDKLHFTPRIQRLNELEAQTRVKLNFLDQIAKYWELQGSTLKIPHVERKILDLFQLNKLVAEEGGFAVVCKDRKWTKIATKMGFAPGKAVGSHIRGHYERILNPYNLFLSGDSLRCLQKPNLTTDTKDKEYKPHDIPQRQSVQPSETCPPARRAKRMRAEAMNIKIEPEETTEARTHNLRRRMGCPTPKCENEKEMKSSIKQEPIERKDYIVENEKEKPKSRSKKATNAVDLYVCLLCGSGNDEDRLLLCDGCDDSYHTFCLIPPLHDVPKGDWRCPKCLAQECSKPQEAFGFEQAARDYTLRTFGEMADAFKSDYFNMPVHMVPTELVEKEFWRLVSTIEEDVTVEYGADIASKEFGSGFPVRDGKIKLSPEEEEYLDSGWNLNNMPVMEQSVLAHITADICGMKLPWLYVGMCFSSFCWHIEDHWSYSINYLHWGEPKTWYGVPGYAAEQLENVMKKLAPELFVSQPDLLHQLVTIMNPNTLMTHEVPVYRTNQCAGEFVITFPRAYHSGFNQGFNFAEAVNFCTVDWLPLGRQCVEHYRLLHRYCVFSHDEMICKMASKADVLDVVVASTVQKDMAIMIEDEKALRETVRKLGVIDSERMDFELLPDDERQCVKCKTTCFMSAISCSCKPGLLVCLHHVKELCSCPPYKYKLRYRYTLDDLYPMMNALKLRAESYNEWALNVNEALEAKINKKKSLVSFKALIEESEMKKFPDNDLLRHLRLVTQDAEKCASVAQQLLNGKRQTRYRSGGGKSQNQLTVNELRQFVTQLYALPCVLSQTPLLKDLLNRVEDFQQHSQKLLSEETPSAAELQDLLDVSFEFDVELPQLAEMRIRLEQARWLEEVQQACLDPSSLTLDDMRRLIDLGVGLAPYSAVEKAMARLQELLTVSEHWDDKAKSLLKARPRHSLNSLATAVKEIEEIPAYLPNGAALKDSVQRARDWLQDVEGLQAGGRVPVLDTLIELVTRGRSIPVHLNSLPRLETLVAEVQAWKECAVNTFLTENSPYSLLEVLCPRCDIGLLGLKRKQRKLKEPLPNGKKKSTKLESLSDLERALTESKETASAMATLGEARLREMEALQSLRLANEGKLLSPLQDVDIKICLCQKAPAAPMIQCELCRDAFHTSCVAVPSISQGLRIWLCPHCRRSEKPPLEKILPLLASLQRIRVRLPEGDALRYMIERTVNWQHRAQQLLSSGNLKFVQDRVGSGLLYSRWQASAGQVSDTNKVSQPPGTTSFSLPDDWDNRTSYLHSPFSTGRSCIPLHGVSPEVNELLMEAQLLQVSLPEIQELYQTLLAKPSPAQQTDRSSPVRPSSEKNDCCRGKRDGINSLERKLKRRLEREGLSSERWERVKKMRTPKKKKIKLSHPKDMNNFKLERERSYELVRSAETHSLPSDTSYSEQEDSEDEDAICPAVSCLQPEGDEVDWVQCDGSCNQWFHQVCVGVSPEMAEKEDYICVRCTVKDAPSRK

Row | SMILES | Potency | activity change, negative = inhibition
1 | O=C(COc1ccccc1F)Nc1ccc2c(=O)c3cccc(F)c3oc2c1 | inactive | –
2 | O=C(NCc1ccc(F)cc1)c1cc(-c2ccc(Cl)cc2Cl)c2cccn2n1 | inactive | –
3 | O=C(NCCc1nc(-c2cccnc2)no1)C1NCCc2[nH]cnc21 (stereo not given) | inactive | –
4 | CCOc1ccc(NC(=O)NC(CC)Cn2nnc3ccccc3c2=O)cc1 (stereo not given) | – | inconclusive: -35.9% [inhibitor]
5 | Cn1nccc1C(=O)NC1CCN(c2cc(-c3ccccc3)[nH]n2)CC1 | inconclusive: 35.5 µM [inhibitor, partial curve, poor fit] | –
6 | CC(C)CCN1CCC2(CC1)COc1ccccc1[S+](=O)([O-])N2 | inconclusive: 112 µM [inhibitor, single point] | –
7 | COc1ccc(/C=C(\NC(=O)c2ccccc2)C(=O)NC2CCCCC2)cc1 | – | inconclusive: -44.7% [inhibitor]
8 | Cc1cc(C)c2[nH]c(CN3CCC(N)C3)cc(=O)c2c1 (stereo not given) | inconclusive: 22.4 µM [inhibitor, partial curve] | –
9 | Cc1cc(C(=O)N[C@@H]2CN(c3ncccn3)C[C@H]2CO)c(C)o1 | inconclusive: 20 µM [inhibitor, partial curve] | –
10 | CCN1c2cc(C(=O)Nc3cccc(C(=O)OC)c3)ccc2C(=O)N2CCCCCC21 (stereo not given) | inconclusive: 22.4 µM [inhibitor, partial curve, poor fit] | –
11 | Cc1ccc(-n2ncc3c(Nc4ccc5c(c4)OCCO5)ncnc32)cc1C | inconclusive: 39.8 µM [inhibitor, partial curve, poor fit] | –
12 | Cc1cc(C(=O)NC2CC(c3nnc(CN(C)C)n3C)C2)c2c(C)noc2n1 (stereo not given) | inactive | –
13 | CCOC(=O)C1CCN(C(=O)c2ccc3c(c2)sc2nc(-c4ccc(OCC)cc4)cn23)CC1 | inconclusive: 31.6 µM [inhibitor, partial curve, poor fit] | –
14 | CC(=O)c1cccc(-n2c(CCC(=O)O)ccc2-c2ccccc2)c1 | inconclusive: 28.2 µM [inhibitor, partial curve, poor fit] | –
15 | Cc1cccc(C)c1NC(=O)C1CCN(S(=O)(=O)c2cccc3nsnc23)CC1 | – | inconclusive: -33.2% [inhibitor]
16 | CCN1CCN(Cc2ccc(CNC(=O)C(C)NC(=O)c3ccco3)cc2)CC1 (stereo not given) | inactive | –
17 | CCc1ccc(CN2CCC(Oc3ccc(C(=O)NCCOC)cc3Cl)CC2)o1 | inactive | –
18 | COc1ccc(-c2cc(C(F)(F)F)nc(N3CCN(Cc4ccccc4)CC3)n2)cc1 | inconclusive: 22.4 µM [inhibitor, partial curve, poor fit] | –
19 | CN1C[C@H](NC(=O)NC2(c3ccccc3)CCOCC2)CCC[C@@H](C(=O)NCc2cc(F)cc(F)c2)CC1=O | inconclusive: 20 µM [inhibitor, partial curve] | –
20 | CCn1nc(CC(C)C)cc1C(=O)N(C)C1CCCN(C2Cc3ccccc3C2)C1 (stereo not given) | inconclusive: 12.6 µM [inhibitor, partial curve, poor fit] | –
21 | COc1ccccc1CNC(=O)c1cc2cn(C(C)C)cc2s1 | inconclusive: 17.8 µM [inhibitor, partial curve, poor fit] | –
22 | CNc1oc(/C=C/c2ccc(OC)c(OC)c2)nc1C#N | inconclusive: 28.2 µM [inhibitor, partial curve, poor fit] | –

Row | SMILES | Potency | activity change, negative = inhibition
23 | CCOc1ccc(-n2c(-c3ccc(OC)cc3)cc3c2CC(C)(C)CC3=O)cc1 | inconclusive: 39.8 µM [inhibitor, single point] | –
24 | O=C1COCC2(CN1Cc1cccc(OC(F)(F)F)c1)CN(c1ccccn1)C2 | inconclusive: 39.8 µM [inhibitor, partial curve, poor fit] | –
25 | CCOCC1(C)COc2ccc(C(=O)Nc3cccc(OC)c3)cc2N1 (stereo not given) | active: 31.6 µM | –
26 | CCOc1cc(/C=C2\NC(=O)NC2=O)c(Br)cc1OC | inactive | –
27 | Cc1ccc(S(=O)(=O)N2CCN(C(=O)CCc3ncc(-c4ccccc4F)o3)CC2)c(C)c1 | inactive | –
28 | O=C(CCc1ccccc1)N1CCNc2cnc(Nc3cccc(C(F)(F)F)c3)nc2C1 | active: 25.1 µM | –
29 | CC(C)C[C@@H]1N[C@H](C(=O)O)Cc2cn(CC3CCC3)c3cccc1c23 | active: 31.6 µM | –
30 | CC(=O)NCC1(COc2cccnc2)C[C@@H](O)[C@@H](O)C1 (stereo not given in full) | inconclusive: 35.5 µM [inhibitor, partial curve] | –
31 | C/C(=N\NC(N)=S)C(=O)O | inconclusive: 31.6 µM [inhibitor, single point] | –
32 | CC1=C[C@@H](CN2CCN(c3ncccn3)CC2)[C@H](C(C)C)C[C@H]1Cc1nnc(-c2ccc(N(C)C)cc2)o1 | inconclusive: 25.1 µM [inhibitor, partial curve, poor fit] | –
33 | C=CCn1c(C)cc(C(=O)Cn2c(=O)c3c(ncn3CC)n(Cc3ccccc3)c2=O)c1C | inactive | –
34 | O=C1CCSc2c1cccc2C(=O)Nc1ccc(F)cc1Cl | inactive | –
35 | C=C(C)CN(CC)C(=O)c1nc(-c2cccs2)oc1C | inconclusive: 31.6 µM [inhibitor, single point] | –
36 | Clc1ccc(-c2cc3c(cn2)CN(Cc2ccncc2)CCN3)cc1 | active: 31.6 µM | –
37 | O=C(NCC12CC3CC(CC(C3)C1)C2)Nc1ccc(Cl)cc1F | inactive | –
38 | Cc1nc2c(C)cccn2c1/C(O)=C1\C(=O)C(=O)N(CCN2CCOCC2)C1c1ccccc1F (stereo not given) | inconclusive: 11.2 µM [inhibitor, partial curve, poor fit] | –
39 | Cc1ccc2oc(-c3cccc(NC(=O)c4cccs4)c3)nc2c1 | inconclusive: 22.4 µM [inhibitor, single point] | –
40 | CCOC(=O)c1cccc(NC(=O)N2Cc3ccccc3Oc3ncccc32)c1 | inconclusive: 28.2 µM [inhibitor, partial curve, poor fit] | –
41 | Cc1oc(-c2ccc(C(=O)N(C)Cc3ccccc3)cc2)nc1CN1CCc2ccccc21 | inconclusive: 5.62 µM [inhibitor, partial curve, poor fit] | –
42 | Cc1nc2c(sc3nc(N4CCOCC4)c4c(c32)CC(C)(C)OC4)c(-c2ccccc2)c1C(=O)O | inconclusive: 39.8 µM [inhibitor, single point] | –
43 | Cc1c(Cc2ccccc2)c(=O)oc2cc3c(cc12)CCC1(CCCCC1)O3 | inconclusive: 1.78 µM [inhibitor, partial curve, poor fit] | –
44 | CN(C)C[C@@H]1CN(c2ncccn2)C[C@H]1NC(=O)c1nn(C)c2ccccc12 | active: 31.6 µM | –

Row | SMILES | Potency | activity change, negative = inhibition
45 | COC(=O)c1ccc(NC(=O)c2cccc(N3C(=O)C4C5C=CC(C6CC56)C4C3=O)c2)cc1 (stereo not given) | inconclusive: 39.8 µM [inhibitor, single point] | –
46 | CCOC(=O)c1sc(NNC(=O)c2ccc(F)cc2)nc1C | inconclusive: 25.1 µM [inhibitor, partial curve, poor fit] | –
47 | COc1ccc(-c2ocnc2C(=O)NCc2cc(OC)c(OC)c(OC)c2)cc1 | inconclusive: 25.1 µM [inhibitor, partial curve, poor fit] | –
48 | CCN1C(C(=O)c2ccccc2)=C(OC(=O)c2ccc(Cl)cc2)c2ccccc2S1(=O)=O | inconclusive: 6.31 µM [inhibitor, partial curve, poor fit] | –
49 | CCOc1ccc(Br)cc1C1C(C(=O)Nc2ccccc2OC)=C(C)Nc2nnnn21 (stereo not given) | – | inconclusive: -37.1% [inhibitor] [at 11.5 µM]
50 | O=C(CN1CCCCC1)Nc1nc(-c2ccccc2)c(-c2ccccc2)s1 | inactive | –
51 | CCOc1ccc(NCc2cccn2-c2nnc(N3CCC(C(=O)NC(C)c4ccccc4)CC3)s2)cc1 (stereo not given) | inconclusive: 2 µM [inhibitor, partial curve, poor fit] | –
52 | COc1ccc(-c2cc(C(F)(F)F)nc(NCc3ccccc3)n2)cc1OC | inconclusive: 35.5 µM [inhibitor, partial curve, poor fit] | –
53 | C=CCNC(=S)NNC(=O)c1ccc(CSc2nc(C)cc(C)n2)cc1 | inactive | –
54 | O=C(NCc1nnc2ccc(-c3ccc(Cl)cc3)nn12)c1cccc(Cl)c1 | active: 22.4 µM | –
55 | CC(C)C[C@@H](C(=O)NC1CCN(Cc2ccccc2)CC1)N1Cc2ccccc2C1=O | inactive | –
56 | COc1ccc(Cn2c3c(c(=O)n2Cc2ccccc2)CCN(Cc2c(C)noc2C)C3)cc1 | inconclusive: 31.6 µM [inhibitor, partial curve, poor fit] | –
57 | CC1(CNc2ccccc2)COc2ccc(C(=O)NCCN3CCOCC3)cc2N1 (stereo not given) | inactive | –
58 | Cc1nc2cc(NC(=O)COc3cccc(Cl)c3)ccc2o1 | inactive | –
59 | Cc1c(-c2ccccc2F)[nH]c2ccc(CNC(=O)CN3CC(=O)NC3=O)cc12 | active: 28.2 µM | –
60 | CCCN(CC)c1ccc(/C=N/NC(=S)Nc2ccc(CC)cc2)cc1 | inconclusive: 5.62 µM [inhibitor, full curve, poor fit] | –
61 | Cc1cccc(S(=O)(=O)c2cn(Cc3ccccc3)c3cc(N4CCC(C)CC4)c(F)cc3c2=O)c1 | inconclusive: 35.5 µM [inhibitor, partial curve, poor fit] | –
62 | O=C(c1ccc(F)cc1F)N1CCN(c2cc(-c3cccs3)[nH]n2)CC1 | inconclusive: 20 µM [inhibitor, partial curve] | –
63 | COc1cccc(CN2CCC3(C2)NC(=O)c2ccccc2O3)c1 (stereo not given) | inactive | –
64 | CCN1CCN(c2oc(-c3ccc(Cl)cc3)nc2C#N)CC1 | inconclusive: 25.1 µM [inhibitor, partial curve, poor fit] | –
65 | Cc1cn2c(=O)cc(COC(=O)c3cccc(NC(=O)C(C)Oc4ccccc4)c3)nc2s1 (stereo not given) | inconclusive: 31.6 µM [inhibitor, partial curve, poor fit] | –
